Results published in the supplement of paper PMC12217912.
The other results are listed elsewhere or left out. Sequences were assembled here from the parent chain. Inactive controls read about 0.05.

B1: TEV protease; numbered along this chain (parent)
chain: MGESLFKGPRDYNPISSSICHLTNESDGHTTSLYGIGFGPFIITNKHLFRRNNGTLVVQSLHGVFKVKDTTTLQQHLVDGRDMIIIRMPKDFPPFPQKLKFREPQREERICLVTTNFQTKSMSSMVSDTSCTFPSGDGIFWKHWIQTKDGQCGSPLVSTRDGFIVGIHSASNFTNTNNYFTSVPKNFMELLTNQEAQQWVSGWRLNADSVLWGGHKVFMVKPEEPFQPVKEATQL

Variants of: B1
Assay: raw area under fraction-flipped curve 0-4 h after induction (AUC4h, not background-subtracted), DNA-recorder readout of cleavage of the substrate (dimensionless); higher = more cleavage of the substrate by the protease variant
Details: temperature: 34 °C; time window: 0-4 h after rhamnose induction
Experimental: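 In vivo DNA recorder in E. coli TOP10(DE3) ΔrhaA at 34 °C. Each TEVp single-site mutant (parent TEVp 0) is paired with a single-site variant of the 7-mer TEVs (canonical ENLYFQ|S). The substrate sits between flexible linkers in a Bxb1-sfGFP-TEVs-SsrA fusion, so cleavage stabilises Bxb1 and speeds flipping of a recombination array, read by NGS. The value is the raw area under the fraction-flipped curve over 0-4 h after rhamnose induction (AUC4h), with ≥20 reads per time point. It is not background-subtracted; inactive controls average about 0.047.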
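Note: Bxb1 expression induced with 0.2% (w/v) L-rhamnose at OD600 near 0.5, cultures sampled hourly, flipped fraction per protease–substrate barcode pair counted by paired-end Illumina sequencing.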

Variant	area with substrate EALYFQS	area with substrate ECLYFQS	area with substrate EDLYFQS	area with substrate EGLYFQS	area with substrate EILYFQS	area with substrate EKLYFQS	area with substrate ELLYFQS	area with substrate EMLYFQS	area with substrate EQLYFQS	area with substrate ESLYFQS	area with substrate EVLYFQS	area with substrate EWLYFQS	area with substrate EELYFQS	area with substrate EPLYFQS	area with substrate ERLYFQS	area with substrate ETLYFQS	area with substrate EFLYFQS	area with substrate EYLYFQS	area with substrate EHLYFQS
MGESLFKGPRDYNPISSSICHLTNESDGHTTSLYGIGFGPFIITNKHLFRRNNGTLVVQSLHGVFKVKDTTTLQQHLVDGRDMIIIRMPKDFPPFPQKLKFREPQREERICLVTTNFQTKSMSSMVSDTSCTFPSGDGIFWKHWIQTPDGQCGSPLVSTRDGFIVGIHSASNFTNTNNYFTSVPKNFMELLTNQEAQQWVSGWRLNADSVLWGGHKVFMVKPEEPFQPVKEATQL [K148P]	0.0818	0.085	0.0906	0.0777	0.0647	0.071	0.0858	0.0794	0.0786	0.0787	0.0741	0.0677							
MGESLFKGPRDYNPISSSICHLTNESDGHTTSLYGIGFGPFIITNKHLFRRNNGTLVVQSLHGVFKVKDTTTLQQHLVDGRDMIIIRMPKDFPPFPQKLKFREPQREERICLVTTNFQTKSMSSMVSDTSCTFPSGDGIFWKHWIQTIDGQCGSPLVSTRDGFIVGIHSASNFTNTNNYFTSVPKNFMELLTNQEAQQWVSGWRLNADSVLWGGHKVFMVKPEEPFQPVKEATQL [K148I]	0.105				0.119			0.105	0.0839	0.106	0.0941		0.11	0.138	0.0943	0.14			
MGESLFKGPRDYNPISSSICHLTNESDGHTTSLYGIGFGPFIITNKHLFRRNNGTLVVQSLHGVFKVKDTTTLQQHLVDGRDMIIIRMPKDFPPFPQKLKFREPQREERICLVTTNFQTKSMSSMVSDTSCTFPSGDGIFQKHWIQTKDGQCGSPLVSTRDGFIVGIHSASNFTNTNNYFTSVPKNFMELLTNQEAQQWVSGWRLNADSVLWGGHKVFMVKPEEPFQPVKEATQL [W141Q]	0.0419	0.0584	0.0683			0.0579	0.0432			0.0552	0.0488	0.057	0.0699		0.0617		0.0668	0.0611	
MGESLFKGPRDYNPISSSICHLTNESDGHTTSLYGIGFGPFIITNKHLFRRNNGTLVVQSLHGVFKVKDTTTLQQHLVDGRDMIIIRMPKDFPPFPQKLKFREPQREERICLVTTNFQTKSMSSMVSDTSCTQPSGDGIFWKHWIQTKDGQCGSPLVSTRDGFIVGIHSASNFTNTNNYFTSVPKNFMELLTNQEAQQWVSGWRLNADSVLWGGHKVFMVKPEEPFQPVKEATQL [F133Q]	0.123		0.172		0.104	0.0988	0.113			0.125				0.134		0.141		0.0984	0.0886
MGESLFKGPRDYNPISSSICHLTNESDGHTTSLYGIGFGPFIITNKHLFRRNNGTLVVQSLHGVFKVKDTTTLQQHLVDGRDMIIIRMPKDFPPFPQKLKFREPQREERICLVTTNFQTKSMSSMVSDTSCTYPSGDGIFWKHWIQTKDGQCGSPLVSTRDGFIVGIHSASNFTNTNNYFTSVPKNFMELLTNQEAQQWVSGWRLNADSVLWGGHKVFMVKPEEPFQPVKEATQL [F133Y]	0.128	0.0535	0.152		0.0893		0.084	0.126		0.113	0.122	0.0901	0.146		0.11	0.113		0.0911	0.134
MGESLFKGPRDYNPISSSICHLTNESDGHTTSLYGIGFGPFIITNKHLFRRNNGTLVVQSLHGVFKVKDTTTLQQHLVDGRDMIIIRMPKDFPPFPQKLKFREPQREERICLVTTNFQTKSMSSMVSDTSCTFPSGDGIFWKHWIQTKKGQCGSPLVSTRDGFIVGIHSASNFTNTNNYFTSVPKNFMELLTNQEAQQWVSGWRLNADSVLWGGHKVFMVKPEEPFQPVKEATQL [D149K]	0.115	0.0836	0.0983		0.0683	0.077	0.049	0.103	0.103	0.0801	0.071	0.0776			0.0818		0.0689	0.0814	0.059
MGESLFKGPRDYNPISSSICHLTNESDGHTTSLYGIGFGPFIITNKHLFRRNNGTLVVQSLHGVFKVKDTTTLQQHLVDGRDMIIIRMPKDFPPFPQKLKFREPQREERICLVTTNFQTKSMSSMVSDTSCTFPSGDGMFWKHWIQTKDGQCGSPLVSTRDGFIVGIHSASNFTNTNNYFTSVPKNFMELLTNQEAQQWVSGWRLNADSVLWGGHKVFMVKPEEPFQPVKEATQL [I139M]	0.128	0.103		0.107	0.0881	0.14	0.0875	0.146	0.156	0.125	0.0875	0.0893	0.138	0.117	0.129	0.152	0.123	0.133	
MGESLFKGPRDYNPISSSICHLTNESDGHTTSLYGIGFGPFIITNKHLFRRNNGTLVVQSLHGVFKVKDTTTLQQHLVDGRDMIIIRMPKDFPPFPQKLKFREPQREERICLVTTNFQTKSMSSMVSDTSCTFPSGDGYFWKHWIQTKDGQCGSPLVSTRDGFIVGIHSASNFTNTNNYFTSVPKNFMELLTNQEAQQWVSGWRLNADSVLWGGHKVFMVKPEEPFQPVKEATQL [I139Y]	0.163	0.0642		0.103	0.0963	0.113		0.0868	0.116	0.114	0.104	0.11	0.131	0.12			0.132		
MGESLFKGPRDYNPISSSICHLTNESDGHTTSLYGIGFGPFIITNKHLFRRNNGTLVVQSLHGVFKVKDTTTLQQHLVDGRDMIIIRMPKDFPPFPQKLKFREPQREERICLVTTNFQTKSMSSMVSDTSCTFPSGDGFFWKHWIQTKDGQCGSPLVSTRDGFIVGIHSASNFTNTNNYFTSVPKNFMELLTNQEAQQWVSGWRLNADSVLWGGHKVFMVKPEEPFQPVKEATQL [I139F]	0.127	0.052	0.136		0.0852	0.109		0.129			0.0973	0.152	0.146	0.133					
